# The campaign covered roughly 310,000 compounds. About 14,000 (4.5%) showed an effect of 50% or more. The effect is printed as a negative number. Some of the results follow.
# Target: human ether-à-go-go-related gene (hERG) potassium channel (human, UniProt Q12809)
# Test: primary screen, population patch clamp on CHO cells stably expressing hERG
# 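Further: peak tail current of the secondary pulse compared with the same well before compound.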
# Sequence of human ether-à-go-go-related gene (hERG) potassium channel (Q12809 whole entry, looked up): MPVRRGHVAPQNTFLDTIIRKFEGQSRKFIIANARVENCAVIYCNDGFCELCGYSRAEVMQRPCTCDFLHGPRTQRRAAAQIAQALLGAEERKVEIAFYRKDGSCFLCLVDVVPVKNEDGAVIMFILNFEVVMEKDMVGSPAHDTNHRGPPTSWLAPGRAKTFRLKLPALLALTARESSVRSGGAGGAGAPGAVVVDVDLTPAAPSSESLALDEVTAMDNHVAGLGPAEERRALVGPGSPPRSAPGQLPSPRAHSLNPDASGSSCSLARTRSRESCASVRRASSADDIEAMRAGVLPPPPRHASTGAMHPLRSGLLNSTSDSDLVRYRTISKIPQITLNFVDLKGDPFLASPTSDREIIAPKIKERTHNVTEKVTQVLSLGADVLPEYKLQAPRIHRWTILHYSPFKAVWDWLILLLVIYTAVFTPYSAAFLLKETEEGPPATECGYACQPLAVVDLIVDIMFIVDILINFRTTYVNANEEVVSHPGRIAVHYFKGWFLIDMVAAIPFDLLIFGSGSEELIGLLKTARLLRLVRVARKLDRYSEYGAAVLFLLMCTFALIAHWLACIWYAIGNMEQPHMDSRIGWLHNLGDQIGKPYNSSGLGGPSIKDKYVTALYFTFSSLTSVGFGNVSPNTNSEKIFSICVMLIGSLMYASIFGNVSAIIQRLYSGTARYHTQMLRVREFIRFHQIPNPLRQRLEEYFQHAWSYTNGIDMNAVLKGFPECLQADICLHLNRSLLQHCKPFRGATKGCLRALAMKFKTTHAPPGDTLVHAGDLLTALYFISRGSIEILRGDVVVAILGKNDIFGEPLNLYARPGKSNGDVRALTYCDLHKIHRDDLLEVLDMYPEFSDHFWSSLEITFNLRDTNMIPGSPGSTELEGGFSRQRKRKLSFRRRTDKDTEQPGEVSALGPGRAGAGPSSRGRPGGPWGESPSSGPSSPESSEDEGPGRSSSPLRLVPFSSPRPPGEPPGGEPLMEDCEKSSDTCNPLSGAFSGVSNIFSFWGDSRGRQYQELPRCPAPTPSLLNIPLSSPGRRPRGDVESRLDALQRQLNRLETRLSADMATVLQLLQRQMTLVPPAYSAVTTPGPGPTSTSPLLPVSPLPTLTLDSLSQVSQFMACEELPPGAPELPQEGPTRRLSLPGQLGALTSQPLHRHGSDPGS
row,SMILES,"hERG current change (%, negative = inhibition) at 10uM [%]"
1,FC(F)(F)c1ccncc1-c1nnc(C2CCCCC2)o1,3.42
2,CCCN1CCN(CC(=O)Nc2nnc(CC)s2)CC1,17.4
3,COC(=O)C1=C(C(=O)OC)[C@@H]2N(C)c3ccc(OC)cc3[C@@]23C[C@@H](C(=O)OC)N(C(=O)c2ccc(Br)cc2)C3=N1,-17.7
4,CC(C)(C)c1cc(C(=O)NNC(=O)Nc2cccc(Cl)c2)n(Cc2ccccc2)n1,24.5
5,CCCCCCOc1ccc(CN2CCN(C)CC2)cc1,-28.4
6,S=C1NCCN1,31.4
7,COc1ccc(-c2nnc(SCC(=O)N3CCCC(C)C3)o2)c(OC)c1 (centres unmarked),1.63
8,CC(C)CN(C(=O)CSc1ccc2c(c1)OCCO2)c1c(N)n(CC(C)C)c(=O)[nH]c1=O,-7.81
9,CCC(CC)c1nnc(NC(=O)C2=COCCO2)s1,2.04
10,Cc1occc1C(=O)N/N=C/C=C/c1ccccc1,-49.6
11,Cn1cnc(S(=O)(=O)NCc2cccs2)c1,18.4
12,C/C(=N\Nc1nc(C)cc(=O)[nH]1)C1CC1,10.1
13,COc1cc(OC)c(OC)cc1/C=C(\C#N)C(=O)NCc1cccs1,20.6
14,COc1ccc(-c2nn(-c3ccccc3)cc2/C=N/Nc2ccc(S(N)(=O)=O)cc2[N+](=O)[O-])cc1OC,19.6
15,CCCOc1ccc(CNCCCOCC)cc1OC.O=C(O)C(=O)O,-32
16,COc1ccc(CN(C)C(=O)c2ccc(NC(=O)CC3SC(N4CCCC4)=NC3=O)cc2)c(OC)c1 (centres unmarked),1.72
17,O=C(Nc1ccc(OC(=O)N2CCCC2)cc1)N1CCOCC1,7.01
18,CCc1cccc(CC)c1NC(=S)NC(C)c1ccccc1 (centres unmarked),-10.6
19,CCSc1nc2c(sc3ccccc32)c(=O)n1C(C)C,8.57
20,O=C(Nc1nccs1)C1CCN(S(=O)(=O)c2ccccc2)CC1,-14.1
21,O=C(NCc1ccc2c(c1)OCO2)C1CC(=O)N(CCc2ccc(Cl)cc2)C1 (centres unmarked),-54.1
22,Cc1ccc(OCC(=O)Nc2ccc(C)c(S(=O)(=O)N3CCCCC3)c2)c([N+](=O)[O-])n1,-45.4

row,SMILES,"hERG current change (%, negative = inhibition) at 10uM [%]"
1,N#Cc1cnn(-c2ccccc2)c1NC(=O)CN1CCOCC1,4.91
2,O=S1(=O)N=C(Nc2ccc(N3CCOCC3)c(Cl)c2)c2ccccc21,17.4
3,Nc1nc2c(ncn2COC(CO)CO)c(=O)[nH]1,17.6
4,CC(C)C(=O)NC(=S)Nc1ccc(CN2CCOCC2)cc1,7.74
5,COc1ccc(CNC(=O)C2CCCN(c3nn4c(=O)cc(C)nc4s3)C2)cc1 (centres unmarked),-40.1
6,O=c1c2ccccc2nnn1Cc1ccccc1Cl,12.2
7,Cc1ncc(CN2CCC(C(=O)Nc3ccc(-n4cccn4)cc3)CC2)s1,-21.2
8,COc1ccc(NC(=O)COc2ccc(-c3ccccc3)cc2)cc1,2.28
9,O=C1NC(c2ccc3c(c2)OCO3)Nc2ccccc21 (centres unmarked),10.5
10,O=C(CCCN1C(=O)c2ccccc2C1=O)Nc1nccs1,-3.89
11,N/C(=N\NS(=O)(=O)c1ccccc1C(F)(F)F)c1ccccn1,-9.06
12,COc1ccc(NC(=S)N(CCN2CCOCC2)Cc2cc3cc4c(cc3[nH]c2=O)OCO4)cc1,-4.36
13,CCOc1ccc(S(=O)(=O)Nc2nc3ccccc3nc2Nc2ccc(N3CCOCC3)cc2)cc1,-20.5
14,Nc1ccc2nonc2c1[N+](=O)[O-],33.9
15,OCC[C@@H]1C[C@H](O)[C@@H](O)[C@@]2(CCc3ccccc3CO2)O1,11.7
16,Cc1cc(N2CCOCC2)n2ncc(-c3ccccc3Cl)c2n1,-5.97
17,CCOc1cc(C)c(C(C)C)cc1S(=O)(=O)n1cnc(C)c1,-18.7
18,O=C(OCCCN=C1NS(=O)(=O)c2ccccc21)c1ccc([N+](=O)[O-])cc1,-32.3
19,O=C1c2ccccc2S(=O)(=O)c2cc(N3CCN(c4ccccn4)CC3)ccc21,4.69
20,Oc1ccc(N=Nc2ccccc2)cc1,14.7
21,Cc1cc(C)nc(SCC(=O)NC2CCCCC2C)n1 (centres unmarked),14.6
22,COc1ccc2c(c1)CC/C2=N\OC(=O)c1ccccc1OC,3.97

# Reference: paper PMC4336329 (PLoS ONE, 2015)
